# From PubChem BioAssay (NCI)
# Values joined by “and” are separate entries in the source; they are usually repeats but may differ in a detail not shown here. Equal values may be shown once.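 Five compound concentrations were applied to cells in 96-well plates for 48 hours; endpoints were derived by simple linear interpolation of the resulting dose-response curve. The concentration for 50% growth inhibition is given as GI50. TGI is the concentration that stops growth completely.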 Square brackets hold non-standard residues; d marks the D form. Peptide text beside a SMILES is read from it. * marks the point of attachment. Hyp = O=C(O)[CH]1C[CH](O)CN1; Cbz = O=C(OCc1ccccc1)*
# Tested on: NCI-H322M lung
# Experiment: growth of human tumour cells (NCI), 48 h
Structure (SMILES),TGI,GI50
CN(CCCN1CCCC1)CCCN(C)C(=O)Cc1ccc(Cl)c(Cl)c1,32.4 µM,
CCN1Cc2c(/C=C/c3ccccc3)nc3ccc(OC)cc3c2N(c2cccc(Cl)c2)C1,5.14 µM,2.12 µM
CN1CCN(c2ccc3nc(-c4ccc5nc(CCCc6ccc(N(CCCl)CCCl)cc6)[nH]c5c4)[nH]c3c2)CC1,> 100 µM,
O=c1c2cc(Br)ccc2n(C2OC(CO)C(O)C(O)C2O)c(=S)n1-c1ccccc1 (stereo not given),> 100 µM,
O=C(/C=C/c1ccco1)N1CCN(Cc2ccccc2)CC1,> 100 µM,
CS(=O)(=O)Nc1cccc(-c2ccc3ncnc(Nc4cncc(Cl)c4)c3c2)c1,10.4 µM,0.36 µM
O=C(Cc1ccccc1)Nc1nc2ccc(Cl)cc2c2nc(-c3ccco3)nn12,> 100 µM,
NC(=O)/C=C/c1c[nH]c2nccnc12,17.2 µM,
COc1ccccc1CC1(O)OC(=O)c2ccccc21 (stereo not given),> 100 µM,
CCOC(=O)/C=C(\C(=O)OCC)n1cc(C)c(=O)n(Cc2cn(COCCOC(C)=O)nn2)c1=O,> 100 µM,
CCOC(=O)COc1cc(-c2ccccc2)nc2cc(F)ccc12,> 100 µM,
O=C(c1nc2ccc(Cl)cc2[nH]c1=O)C(O)c1cccc([N+](=O)[O-])c1 (stereo not given),> 100 µM,
O=C(Cc1ccccc1)N/N=C(/c1nc2ccc([N+](=O)[O-])cc2[nH]c1=O)C(O)c1ccco1 (stereo not given),> 100 µM,
O=C(NN1CCCCC1)c1cc2cc(CCl)ccc2oc1=O,32.2 µM,
CC1(C)OC2C(O1)[C@H]1OC(C(Cl)(Cl)Cl)=N[C@H]1C(I)[C@H]2N1C(=O)c2ccccc2C1=O (stereo not given in full),> 100 µM,
CC(C)C(=O)/C=C/c1ccc(Cl)cc1Cl,28.1 µM,
c1ccc(C[N+]23C(CC[C@H]2c2ccccc2)CC[C@H]3c2ccccc2)cc1 (stereo not given in full),> 100 µM,
C=C(C)[C@@H]1CC[C@]2(COC(=O)c3ccccc3C(=O)O)CC[C@]3(C)[C@H](CC[C@@H]4[C@@]5(C)CC[C@H](OC(=O)c6ccccc6C(=O)O)C(C)(C)[C@@H]5CC[C@]43C)[C@@H]12,> 100 µM,50.7 µM
CCCCCCCCCc1cc(=O)c2c(O)cc(O)cc2o1,38 µM,
Nc1n[nH]c2cc(F)c([C@@H]3Nc4c(F)cc5[nH]ncc5c4[C@H]4C5CCC(C5)[C@@H]34)cc12 (stereo not given in full),31.8 µM,0.267 µM
COC(=O)C1=C(C(=O)OC)N(c2ccncc2)C(c2ccco2)=CC1c1ccccc1[N+](=O)[O-] (stereo not given),23.2 µM,
Clc1ccc(C2=Cc3nc2c(-c2ccccc2)c2ccc([nH]2)c(-c2ccccc2)c2nc(c(-c4ccccc4)c4ccc([nH]4)c3-c3ccccc3)C=C2)cc1,> 62.5 µM,
CC(C)=CC1(C)/C(=N\O)C(C)(CC(C)C)C(=O)N1O (stereo not given),> 100 µM,
O=C(Cc1ccc(-c2ccc(OCCN3CCOCC3)cc2)cn1)NCc1ccccc1,> 100 µM,0.0747 µM and 0.0579 µM

Structure (SMILES),TGI,GI50
COc1cccc(C=C(C#N)C#N)c1OC,> 100 µM,
COc1cc([N+](=O)[O-])cc2c1NC(=O)C2(C)SC (stereo not given),> 100 µM,
Cc1ccc(S(=O)(=O)Nc2cc(=O)[nH]c3c2CCC3)cc1,> 100 µM,
Oc1cc(F)cc2cccnc12,> 100 µM,
N#Cc1cc2c(=S)[nH]c(=S)[nH]c2nc1SCc1ccccc1,> 100 µM,46.5 µM
COc1cc(/C=C2\CC3C4CC[C@H]5C[C@@H](O)CC[C@]5(C)C4CC[C@]3(C)\C2=N\O)cc(OC)c1OC (stereo not given in full),> 100 µM,
CCOc1ccc2c(c1)[n+]([O-])c(-c1ccc([N+](=O)[O-])cc1)c(N)[n+]2[O-],> 100 µM,
OC1CCSc2ccccc21 (stereo not given),> 100 µM,
O=C1c2ccccc2C(=O)c2c1sc1nc3ccccc3n21,3.33 µM,
CCOC(=O)CC1C(CNC(=O)NC)OC(n2cnc3c(NC(=O)Nc4ccccc4)ncnc32)C1O[Si](C)(C)C(C)(C)C (stereo not given),> 100 µM,> 100 µM
COc1cc2cc[n+](C)c(Cc3ccc(Oc4cc(Cc5c6cc(OC)c(OC)cc6cc[n+]5C)ccc4OC)cc3)c2cc1OC,> 100 µM,
COc1ccc(OC)c(-c2nc3sc(C)cn3c2/C=C2\C(=O)N(C)c3ccccc32)c1,> 100 µM,42.2 µM
NC(=S)N/N=C(/CCN1CCCC1)CC(C1=C(O)C2=CCCCC2OC1=O)c1ccccc1 (stereo not given),> 100 µM,
COc1ccc(/C=N/C2=NNC(C)(c3ccccc3O)N2C(Cc2c[nH]c3ccccc23)C(=O)O)cc1 (stereo not given),15.6 µM,3.33 µM
CCN(CC)CCC(CNc1c(C)cnc2cc(Cl)ccc12)c1ccc(Cl)c(Cl)c1 (stereo not given),11.6 µM,1.95 µM
CCOC(=O)CCCOc1cc(-c2ccccc2F)nc2cc3c(cc12)OCO3,> 100 µM,
CC(NNC(=S)N1CCN(c2ccccn2)CC1)c1cccc[n+]1[O-] (stereo not given),99.7 µM,
CN(C)c1ccc(C2=C([O-])c3cc(-[n+]4ccccc4)ccc3C2=O)cc1,> 100 µM,
Cc1ccc([N+](=O)[O-])cc1S(=O)(=O)Nc1ccc(C2=NN(C(=O)c3ccccc3)C(c3ccccc3O)C2)cc1 (stereo not given),> 100 µM,
CCOc1cc(CCNC)c2c(ccc3ccc(OC)c(O)c32)c1OC,29.2 µM,
N#CC(C(=S)Nc1ccccc1)=C1Nc2ccccc2N1,> 10 µM,
Nc1ccc(Cc2ccc(N)c(C(=O)O)c2)cc1C(=O)O,> 100 µM,
NC(=S)N/N=C1/C(=O)N(c2ccccc2)C(=O)C1C(=O)Nc1ccccc1 (stereo not given),> 100 µM,
Cc1[nH]c2[nH]c(=S)nc(NC(N)=S)c2c1Cc1ccccc1,> 100 µM,

Structure (SMILES),TGI,GI50
COc1ccc(C#CC2=C(Br)C(=O)OC2)cc1,11.3 µM,3.16 µM
O=C1/C(=C\c2cccc(Oc3ccccc3)c2)SC(c2ccccc2)N1Cc1ccccc1 (stereo not given),> 100 µM,
COc1ccc2c3c([nH]c2c1)[C@H](C=C(C)C)N1C(=O)[C@@H]2CCCN2C(=O)[C@@H]1C3,> 100 µM,
Cc1cccc(/C=N/N=C(\N)NO)n1,> 100 µM,
O=C(c1ccccc1)N1CCC(Nc2cccnc2)O1 (stereo not given),> 100 µM,
COc1ccc2cn3c4ccc(O)cc4[nH]c(=O)c3c2c1,19.1 µM,0.926 µM
O=c1oc2ccccc2c(O)c1Cc1ccccc1Cc1c(O)c2ccccc2oc1=O,> 100 µM,
COc1cc(/C=C/C(=O)N[C@@H]2C(=O)N3[C@@H]2SC(C)(C)[C@@H]3C(=O)O)ccc1O,> 100 µM,
O=C1/C(=C/c2ccc([N+](=O)[O-])cc2)Sc2scc(-c3cccc([N+](=O)[O-])c3)[n+]21,39.3 µM,
COc1cc(-c2cn(-c3ccc(F)cc3)c(=O)[nH]2)cc(OC)c1OC,> 100 µM,> 100 µM
Nc1nc(Cl)cc(NCC2(CO)CC=CC2)n1,> 100 µM,
O=C1C2CCCCC2C(=O)N1n1c(Cc2ccccc2)n[nH]c1=O (stereo not given),> 100 µM,
CC(C(=O)c1ccc(O)cc1)C1(O)C(=O)Nc2c(Cl)cc(Cl)cc21 (stereo not given),> 100 µM,
C=CC(=O)N1CCC(CNc2ncnc(N)c2-c2ccc(Oc3ccccc3)cc2)CC1,> 100 µM,21.4 µM
CCOC(=O)CCC(NC(=O)CNC(=O)CNC(=O)C(CCC(=O)OCC)NC(=O)C(CCC(=O)OCC)NC(=O)C(CCC(=O)OCC)NC(=O)OCc1ccccc1)C(=O)NC(CCC(=O)OCC)C(=O)NC(CCC(=O)OCC)C(=O)OCC (stereo not given) (Cbz-E(OEt)E(OEt)E(OEt)GGE(OEt)E(OEt)E(OEt)-OEt; configuration not given here),> 75 µM,
COC(=O)C1OC(SCCN)C(O)C(O)C1O (stereo not given),> 100 µM,
CCSc1nc(N)c(C#N)c(-c2ccc(OC)c(OC)c2)c1C#N,> 50 µM,> 50 µM
CNC(=O)NCCCCC(NC(=O)OCc1ccccc1)C(=O)OCc1ccccc1 (stereo not given),> 100 µM,
NC(N)=N/N=C/c1c(-c2cccs2)nc2n1CCS2,42.8 µM,17.5 µM
O=C(c1nc2ccc(Cl)cc2[nH]c1=O)C(O)c1ccco1 (stereo not given),> 100 µM,
COc1cc(NC(=O)c2cc3ccccc3cc2O)c(OC)cc1Cl,6.06 µM,1.68 µM
CC(NC(=O)c1ccc(OP(=O)(OCc2ccc([N+](=O)[O-])o2)N(C)CCCCCl)cc1)c1ccc(OCC2CCCCC2)c(C(N)=O)c1 (stereo not given),> 67.2 µM,
CC(=S)NC=C(C(N)=O)C(N)=O,> 100 µM,
CS(=O)(=O)Nc1ccc(NCc2cnc3ccc4[nH]cccc4c23)cc1,> 100 µM,

Structure (SMILES),TGI,GI50
CN1CCC(n2cnc(-c3ccc(F)cc3)c2-c2ccnc(Nc3ccccc3)n2)CC1,> 25 µM,7.8 µM
COc1cc(S(=O)(=O)Nc2ccc(-c3csc(/N=C\c4cccc(Oc5ccccc5)c4)n3)cc2)ccc1Cl,> 100 µM,
N#CCc1ccccc1/C(C#N)=C1/OC(=N)C(c2ccccc2CC#N)C1=O (stereo not given),> 100 µM,
Nc1ccccc1-n1c2c(c3ccccc3c1=O)C(=O)c1ccccc1-2,> 100 µM,
CCC1=NC(N/N=C/c2ccco2)=N/C1=C\c1ccco1,> 100 µM,
O=C1c2ccccc2-c2c1c1ccc([N+](=O)[O-])cc1c(=O)n2CCN1CCOCC1,> 100 µM,> 100 µM
NC1=CC(=O)C(=O)c2ccccc21,> 100 µM,28.9 µM
Nc1nc(N)c2cc(S(=O)(=O)c3ccccc3)ccc2n1,> 100 µM,4.02 µM
COC(=O)CCC(=O)Nc1cc(C)ccc1C,> 100 µM,
CC1=C(c2ccccc2)CON(c2ccccc2)C1,> 100 µM,
C/C(=N\NC(N)=S)C(CN1CCCCC1)C(C1=C(O)c2ccccc2OC1)c1ccccc1 (stereo not given),> 100 µM,
COc1c(OC)c(OC)c2c(=O)c(OC)c(-c3ccc4c(c3)OCO4)oc2c1OC,> 100 µM,
CN(C)c1cccc2c(S(=O)(=O)NCCCNCCN)cccc12,> 100 µM,
COc1ccc2c(ccc3oc([N+](=O)[O-])cc32)c1,4.32 µM,0.47 µM
COc1ccc(-n2nc(C(=O)NCC(=O)Nc3nc4cc(OC)ccc4s3)c3ccccc3c2=O)cc1,> 26.2 µM,2.1 µM
COC(=O)C[C@@H]1CC=CC(=O)/C1=C(O)/C=C/c1ccccc1,3.51 µM,1.53 µM
CCCCCCCCCCCc1cc(=O)c2c(O)cccc2o1,> 100 µM,
COc1ccccc1NC(=O)C1=C(C)NC(C)=C(C(=O)Nc2ccccc2OC)C1c1ccc(C2C(C(=O)Nc3ccccc3OC)=C(C)NC(C)=C2C(=O)Nc2ccccc2OC)cc1,10.5 µM,
O=C(/C=C/c1ccc(O)c(O)c1)O[C@H]1CCCC[C@@H]1OC(=O)/C=C/c1ccc(O)c(O)c1,43.1 µM,
CCCCCCCCCCCCCC/C(C(=O)O)=C(\C)C(=O)O,> 100 µM,
CC(=O)OC1OC(C2c3cccc(O)c3C(=O)c3c(O)cc(CO)cc32)C(O)C(O)C1O (stereo not given),43.2 µM and 37 µM,
NC(=O)CNC(=O)C1CC(O)CN1C(=O)C1CCCN1C(=O)OCc1ccccc1 (stereo not drawn) (Cbz-Pro-[Hyp]-Gly-NH2; configuration not given here),> 100 µM,
C=CC(=O)OCCCS(=O)(=O)[O-].C=CC(=O)OCCCS(=O)(=O)[O-].NC1CCCCC1N.[Pt+4],> 25 µM,> 25 µM
